Measured values published in publication PMC4336329 (PLoS ONE, 2015).
About 2,200 (0.71%) of roughly 310,000 compounds showed an effect of 50% or more. Effects have a minus sign here. Some of the results follow.

Each compound was assayed against human ether-à-go-go-related gene (hERG) potassium channel (human, UniProt Q12809) (assay: primary screen, population patch clamp on CHO cells stably expressing hERG).
Chain of human ether-à-go-go-related gene (hERG) potassium channel (Q12809 whole entry, looked up): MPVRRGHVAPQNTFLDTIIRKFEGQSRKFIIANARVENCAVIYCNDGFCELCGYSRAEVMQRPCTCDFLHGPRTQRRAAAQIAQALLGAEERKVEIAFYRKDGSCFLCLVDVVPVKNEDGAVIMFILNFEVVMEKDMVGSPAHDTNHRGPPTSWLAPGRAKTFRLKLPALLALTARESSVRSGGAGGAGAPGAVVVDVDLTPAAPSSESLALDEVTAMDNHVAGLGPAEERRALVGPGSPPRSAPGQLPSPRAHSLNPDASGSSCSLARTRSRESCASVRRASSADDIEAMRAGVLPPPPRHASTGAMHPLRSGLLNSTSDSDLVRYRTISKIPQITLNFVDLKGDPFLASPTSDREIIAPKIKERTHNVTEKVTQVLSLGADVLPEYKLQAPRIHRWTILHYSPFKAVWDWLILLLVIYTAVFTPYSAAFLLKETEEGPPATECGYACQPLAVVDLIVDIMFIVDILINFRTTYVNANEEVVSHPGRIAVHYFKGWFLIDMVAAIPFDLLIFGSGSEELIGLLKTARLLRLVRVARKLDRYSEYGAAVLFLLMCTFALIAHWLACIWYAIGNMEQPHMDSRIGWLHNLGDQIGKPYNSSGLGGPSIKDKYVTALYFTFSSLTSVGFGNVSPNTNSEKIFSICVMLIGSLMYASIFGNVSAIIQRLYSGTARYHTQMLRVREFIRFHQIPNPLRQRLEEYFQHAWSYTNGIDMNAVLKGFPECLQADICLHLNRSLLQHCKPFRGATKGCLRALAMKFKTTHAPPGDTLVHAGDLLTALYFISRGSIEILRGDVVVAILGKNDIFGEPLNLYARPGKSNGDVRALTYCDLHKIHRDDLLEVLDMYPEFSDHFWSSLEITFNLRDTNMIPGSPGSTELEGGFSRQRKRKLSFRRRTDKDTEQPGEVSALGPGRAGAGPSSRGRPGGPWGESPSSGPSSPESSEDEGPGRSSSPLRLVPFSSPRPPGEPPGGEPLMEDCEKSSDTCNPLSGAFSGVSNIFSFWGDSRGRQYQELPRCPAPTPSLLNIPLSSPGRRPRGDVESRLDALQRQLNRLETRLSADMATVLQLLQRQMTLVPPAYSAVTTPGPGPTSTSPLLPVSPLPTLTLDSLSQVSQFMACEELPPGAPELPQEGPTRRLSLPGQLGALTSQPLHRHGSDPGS

SMILES	hERG current change (%, negative = inhibition) at 1uM [%]
CN(CC(=O)Nc1ccccc1Cl)C(=O)CSC(=S)N1CCCC1	4.36
Cn1ncc(Cl)c1C(=O)N/N=C/c1ccccn1	7.14
CC(C)C(NS(=O)(=O)c1cccc2nsnc12)C(=O)N1CCCCC1 (stereo not drawn)	8.75
Cc1ccc(C(=O)OCC(=O)N2CC(C)OC(C)C2)cc1 (stereo not drawn)	15.5
O=C1c2ccccc2C(=O)N1OCCOCCOCCON1C(=O)c2ccccc2C1=O	-2.15
CCCCCCCCCCCCN1[C@@H](CC(=O)O)c2cc(C(F)(F)F)ccc2S1(=O)=O	-11.8
CCc1ccccc1NS(=O)(=O)c1ccc(OC)c2ncccc12	14.4
CN(C(=O)c1cc(-c2ccccc2)on1)C1CCCCC1	10.5
O=C(Nc1cccc(Cl)c1)N1CCOCC1	17.8
CCNC(=S)N/N=C/c1ccc(C(=O)O)cc1	5.45
COc1ccc2oc3cc(C)[n+]([O-])c(-c4ccc(C)cc4)c3c2c1	-5.29
Cc1ccc(C)c(NC(=O)CCN2C(=O)[C@@H]3Cc4ccccc4CN3C2=O)c1	15.3
C=CCOC(=O)C1=C[C@H](C2CCCCC2)[C@@H](CCCO)[C@H](OCC)O1	9.02
Cc1ccc(S(=O)(=O)CC(=O)c2cc(C)c(O)c(C)c2)cc1	8.75
Cn1c(N=NC(=O)c2ccccc2)c(O)c2ccccc21	17.7
COc1cccc(NC(=O)Cc2nnc(SCC(=O)NC(C)c3ccccc3)n2C)c1 (stereo not drawn)	13.1
CC(=O)Nc1ccc(S(=O)(=O)NCCC(=O)OCC(=O)N2CCN(C(=O)c3ccco3)CC2)cc1	5.68
O=C(CCc1ccccc1)c1nnc(-c2ccccc2)o1	0.581
O=C(CNC(=O)c1ccc2c(c1)OCCO2)N/N=C/c1cccc(Br)c1	7.03

SMILES	hERG current change (%, negative = inhibition) at 1uM [%]
CCCCN(CCCC)CCNC(=O)c1cn(CC)c2ccc(S(=O)(=O)N3CCCC3)cc2c1=O	-30.2
Cl.Oc1ccc(CC2(N3CCCC3)CCCCC2)cc1	18.3
CC1CCc2nn(CC(=O)NCCN3CCCCC3C)cc2C1 (stereo not drawn)	0.592
COc1ccc(OC)c(NC(=S)N(CCc2c(C)[nH]c3ccccc23)Cc2cccs2)c1	5.84
CC1=C(C(=O)Nc2ccccc2C(=O)NCCCOC(C)C)SCCO1	18.8
Cc1noc(C)c1COc1ccc(C(=O)N2CCN(S(=O)(=O)c3ccc(Cl)cc3)CC2)cc1	-7.72
COc1cc(Cl)c(C)cc1NC(=O)CN(C)Cc1cccc(OC)c1OC	4.09
CCOC(=O)CNC(=O)c1ccc(Br)s1	3.66
Cn1cnnc1SCC(=O)Nc1ccc2c(c1)CCC2	8.47
CC(C)CCNC(=O)NC(=O)CSc1ncccn1	16.8
COc1ccc(C/C(N)=N/n2cnnc2)cc1Cl	14.3
O=C(NCCC1=CCCCC1)C1CCC(CNS(=O)(=O)c2ccccc2)CC1 (stereo not drawn)	5.85
COc1cccc(NC(=O)NCC2CCN(Cc3ccc(F)cc3)CC2)c1	-3.34
COc1ccc(S(=O)(=O)NC2CC2)cc1Cl	16.9
Cc1ccc(S(=O)(=O)NCCC(=O)N2CCCCCC2)cc1	8.69
FC(F)(F)c1cc(-c2ccccc2)nc(-n2cc(Cl)cn2)n1	14.8
COc1cc(OC)c(OC)cc1CNCC1COc2ccccc2O1.Cl (stereo not drawn)	10.9
CCC1(c2ccccc2)NC(=O)N(CC(=O)Nc2ccc(S(N)(=O)=O)cc2)C1=O (stereo not drawn)	13.2
O=C(COC(=O)c1cccnc1Cl)Nc1ccc(N2CCCCC2)cc1	6.18

SMILES	hERG current change (%, negative = inhibition) at 1uM [%]
Nc1ccc(C(=O)OCC(=O)N2CCN(C(=O)c3ccco3)CC2)cc1[N+](=O)[O-]	5.51
CC(C(=O)N1CCc2ccccc21)N1CCN(S(=O)(=O)c2cccc(C(F)(F)F)c2)CC1 (stereo not drawn)	3.07
CCc1c(C(=O)Nc2nnc(C3CC3)s2)csc1C	14.2
CCc1nc(Nc2cccc(F)c2)c2oc3ccccc3c2n1.Cl	13
CCNc1ccc(C(=O)OC(C(=O)NC(N)=O)C(C)C)cc1[N+](=O)[O-] (stereo not drawn)	15.1
O=C(Nc1ccc2c(c1)oc1ccc(S(=O)(=O)N3CCCC3)cc12)C1CC1	3.12
CCC(C)Oc1nc(C)cc(C)c1S(=O)(=O)c1ccccc1C (stereo not drawn)	-0.993
COC(=O)[C@@]1(Cc2ccc(OC)cc2)[C@H]2c3cc(C(=O)N(C)C)[nH]c3C[C@H]2CN1C(=O)c1ccccc1	8.07
CSc1ccccc1C(=O)NC1CCCCC1	1.3
CN(CC(=O)Nc1ccc(Cl)c(C(F)(F)F)c1)C(=O)CCC(=O)c1ccccc1	4.52
CC1=C(C(=O)Nc2cccc(C)c2C)C(c2cccs2)NC(=S)N1 (stereo not drawn)	7.41
COc1ccc(OC)c(NC(=O)C2CCCN(S(C)(=O)=O)C2)c1 (stereo not drawn)	10.9
O=C(/C=C/c1ccc([N+](=O)[O-])cc1)Nc1cccc(C(=O)Nc2ccccc2C(=O)O)c1	19.4
CCOC(=O)c1c(C)nc(-c2ccccc2)nc1N	14.9
C=CCOc1ccc(C(=O)O)cc1Cl	-1.94
CN1CCN(c2ccc(C(=O)NC3CCCCC3)cc2[N+](=O)[O-])CC1	-1.35
O=C(c1ccccc1-c1ncc[nH]1)N1CCc2c([nH]c3ccccc23)C1c1ccccn1 (stereo not drawn)	3.09
Cc1ccc(-n2c(O)c(C=Nc3ccc(Br)cn3)c(=O)[nH]c2=O)cc1	13.3
CCOC(=O)C1(c2nc(N)cs2)COC(=O)C1 (stereo not drawn)	17
